Laboratory results from the supplement of paper PMC3334620.
In all, about 33,000 sequences were measured (“E-score (-0.5 to 0.5)”: median about -0.054, highest 2% from about 0.39 on). This is one part of the list.

Target: Ylr278c (UniProt Q05854)
Assay: PBM E-score (8-mer binding enrichment) (E-score (-0.5 to 0.5)); higher = stronger / more preferred TF binding; most listed sequences are background and not binding sites
Details: protein concentration: 200 nM; construct: GST-DNA-binding domain
Method: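 Universal 'all 10-mer' protein binding microarrays (Agilent AMADID 015681) probed with GST-tagged S. cerevisiae TFs (full-length or DBD) made by in vitro transcription/translation (PURExpress), about 100-200 nM. Bound TF was detected with fluorescent anti-GST. Each ungapped 8-mer (which stands for itself and its reverse complement) is scored by the PBM enrichment score (E-score), a modified Wilcoxon-Mann-Whitney statistic from -0.5 to +0.5, computed with the Universal PBM Analysis Suite. Scale: above 0.35 generally sequence-specific binding.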

| Sequence | PBM E-score |
| --- | --- |
| GTGGCTTA | -0.256 |
| CGGTAGGC | 0.121 |
| CGTAGCAA | -0.109 |
| AGGGGAGA | -0.135 |
| AGTGTACA | -0.268 |
| TTTTAAAA | 0.03 |
| GCATCACC | -0.0755 |
| TTCCTAAA | -0.238 |
| GGTGACAA | -0.00085 |
| AGAAGTCC | 0.26 |
| CTGAACGC | -0.0116 |
| CAATACGC | 0.0615 |
| CCGGCCGG | 0.461 |
| AGGTGAGG | -0.14 |
| CCCGGCAA | 0.303 |
| GCCCTGCC | -0.036 |
| GCTTGCCA | -0.137 |
| AGCGCGCT | 0.0204 |
| TCGGCGAA | 0.372 |
| AGGTATTA | -0.0551 |
| ACTACTAG | -0.0129 |
| CATAATCG | 0.168 |
| ATTAAGTC | -0.0973 |
| CTACCGCA | -0.0439 |
| AAGAGGTG | 0.0441 |

| Sequence | PBM E-score |
| --- | --- |
| ACTCTAAA | -0.0315 |
| CTGAAGTC | -0.0671 |
| GCATACAA | -0.0576 |
| AACGGGAA | 0.257 |
| ACGTGTAG | -0.151 |
| ACCACGTG | -0.149 |
| GCATCCCC | 0.142 |
| GGACTCTA | 0.0449 |
| ACGGCGAG | 0.0331 |
| ATATCGGG | 0.313 |
| AATGAAGT | -0.0763 |
| TCAAATGA | -0.0127 |
| GAATAAAA | 0.0963 |
| CGTCGGTA | 0.0934 |
| AGTCACCC | -0.187 |
| TCCTAAGA | -0.128 |
| GTTGTAAA | -0.165 |
| ATATGATG | -0.127 |
| AGGGCAGC | -0.242 |
| AAACATGG | -0.111 |
| ATGCACAA | -0.207 |
| ACCAGCGC | -0.167 |
| GCTTGATA | -0.166 |
| TGTGATAA | -0.241 |
| AAGTGCAA | -0.227 |

| Sequence | PBM E-score |
| --- | --- |
| TGATTCAA | -0.0652 |
| CACATGGA | -0.226 |
| TCGCCCAA | -0.145 |
| ATGAATAC | -0.083 |
| CAACCGGG | 0.215 |
| ACAATCGA | -0.178 |
| ACGCGCGG | 0.349 |
| CTCATAGA | -0.278 |
| TATACTGA | 0.00579 |
| ACAAAGTG | -0.113 |
| ATGAGGAC | -0.0691 |
| GCCATCGC | -0.0776 |
| AGATAATG | -0.105 |
| CGTTTGCC | 0.16 |
| ATTATTAA | 0.115 |
| CACGCCGG | 0.347 |
| TGAAAAAA | 0.0278 |
| AAAAGGTT | -0.11 |
| ATTCATCC | -0.0901 |
| AGATAGTC | -0.193 |
| CCCTGAGG | -0.306 |
| CCATAATA | 0.00429 |
| CAGTGATC | -0.0716 |
| TCTAGAGA | -0.353 |
| CGTATTAG | -0.0233 |

| Sequence | PBM E-score |
| --- | --- |
| GAATTACA | 0.0441 |
| GCGGGAAA | 0.282 |
| ATGTCGGA | 0.397 |
| GGCTGAAA | 0.0155 |
| CTCTCGCC | -0.171 |
| AGATCGAA | -0.00764 |
| CGTGACCC | 0.102 |
| AGTGGCCG | 0.182 |
| CCCATCGC | 0.146 |
| GTTTCTTA | -0.209 |
| ACGGTTAT | 0.0186 |
| CAATGAGA | -0.186 |
| ACCGTCCT | -0.111 |
| AAATTGGA | 0.0275 |
| ACCAGGTA | -0.0412 |
| AACGATTG | -0.0873 |
| AGGTAGTG | -0.0634 |
| CCTTGGAG | -0.107 |
| CGGAGGGA | 0.368 |
| GAGAAACA | 0.0561 |
| GAGTGTGA | -0.22 |
| CGGCCAAC | 0.181 |
| ATCCCTAA | -0.254 |
| GCAGCGGC | 0.109 |
| AAAGCCGC | 0.294 |

| Sequence | PBM E-score |
| --- | --- |
| CACACGTA | -0.319 |
| CCGTTGCG | 0.233 |
| CAAGAACA | -0.199 |
| ATCTCCGC | 0.47 |
| GGTATGTA | -0.0721 |
| CCACTTGC | -0.0175 |
| ACCCATCT | -0.0789 |
| ACGAGGGA | -0.0806 |
| CGCAAAGC | 0.18 |
| CTCCGAAA | 0.477 |
| GAGATGGA | -0.0596 |
| AAATGAAA | 0.0857 |
| AGGCTTAA | -0.00203 |
| CGTCGGAA | 0.43 |
| CGACTCGA | -0.0765 |
| GACTGTGA | -0.0336 |
| AGCCCATA | -0.0841 |
| CTAGATGC | -0.181 |
| AGGATTCC | -0.00339 |
| GGCCGCCA | 0.0383 |
| CCATCTCC | 0.286 |
| AGCTCTTA | -0.112 |
| AGGAACCT | -0.145 |
| ATGTTATA | -0.197 |
| ATAGGCAA | -0.24 |

| Sequence | PBM E-score |
| --- | --- |
| ACTCGCTC | -0.0339 |
| GATTAGGA | 0.0592 |
| CTCAGGAA | -0.0459 |
| AGTTTAAG | -0.19 |
| CTGAGACA | -0.205 |
| TTAAGCAA | -0.0882 |
| CCGCGTTA | 0.226 |
| ATCCAGTG | -0.0472 |
| GCGCTCGA | -0.0716 |
| TAATTCTA | -0.0905 |
| CTCCTGGA | -0.176 |
| GCCGGACA | 0.447 |
| ACGTCGGG | 0.251 |
| AAAATCGT | -0.0996 |
| CAGAGCGC | -0.133 |
| AGATCCAT | 0.0524 |
| GTGCCAAC | -0.126 |
| TAAACTTA | -0.27 |
| ATGGGAGA | -0.309 |
| CTGTTTCA | -0.0702 |
| GGAGAACC | 0.291 |
| AGGCGCGG | 0.137 |
| AGGGTCCC | -0.0195 |
| ATCCCTGA | -0.125 |
| GCGAAGCC | -0.00848 |

| Sequence | PBM E-score |
| --- | --- |
| CCGAAAAG | 0.243 |
| CTGTCTCA | -0.124 |
| CAATATCC | 0.26 |
| CCGGCTCC | 0.381 |
| AGGGCCAC | -0.255 |
| AGTGCGGA | 0.394 |
| GTTCGACA | -0.0516 |
| AGCTTTGG | -0.224 |
| AAACAGAT | -0.136 |
| ACGTAATG | -0.123 |
| AATTAAAT | -0.0802 |
| CAGCCGAG | 0.0139 |
| CCATTTCC | 0.208 |
| GCGTTTTA | 0.0444 |
| CACGATAC | -0.121 |
| TCACGCCA | -0.0437 |
| GTCCAAGA | -0.185 |
| AATAATAA | 0.0106 |
| AGACTCCA | -0.192 |
| AAGTACCA | -0.126 |
| TATAGGCA | -0.279 |
| TAGTTGAA | 0.00666 |
